# Measurements as given in PubChem BioAssay (Tox21).
# Several values for one entry are separate records, joined by “and”; a condition that tells them apart may be missing. Equal values may be shown once. This list was built around the results that the source calls inconclusive (neither active nor inactive); the mix of calls is not that of the screen. For some of these results: Potencies of inconclusive entries are doubtful fits and often do not repeat. Where a structure was tested more than once in an assay, its records may differ in their call. Activity calls are given as the source filed them. Unless noted, calls come from the whole dose curve; as a rule, active = well fitted curve in the direction sought with a large enough effect in the repeat runs; inconclusive = weak or mixed curves; inactive = no such curve, though single readings can be large; an effect the other way counts as inactive or inconclusive.
# Experiments:
# [1] = qHTS assay to identify small molecule agonists of the progesterone receptor (PR) signaling pathway - cell viability counter screen (AID 1346799; calls by dose curve; note: nearly all actives have a fitted effect of over 45% in size; for activity change, negative = cytotoxicity: % is set by controls: 0 for no effect and ±100 for the full control effect)
# How it was run: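 Multiplexed viability read: CellTiter-Glo luminescence, 30 min RT, following LiveBLAzer FRET measurement on PR-UAS-bla HEK293T cells exposed to compounds 16 hr.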
# [2] = target: Cytochrome P450 2C19 (Homo sapiens) (UniProt P33261); assay: Cytochrome P450 Family 2 Subfamily C Member 19 (CYP2C19) small molecule antagonists: luciferase reporter qHTS assay (AID 1671197); note: nearly all actives have a fitted effect of over 65% in size
# How it was run: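 First, compounds are pinned into enzyme-substrate mix and held 10 min at room temperature. Second, NADPH regeneration solution is added and plates incubate 1 h at 37C. Third, detection reagent is added and luminescence read after 20 min.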
# [3] = target: Cytochrome P450 2C9 (Homo sapiens) (UniProt P11712); assay: Cytochrome P450 Family 2 Subfamily C Member 9 (CYP2C9) small molecule antagonists: luciferase reporter qHTS assay (AID 1671198); note: nearly all actives have a fitted effect of over 50% in size
# How it was run: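 P450-Glo proluciferin substrate with CYP2C9 enzyme; 10 min RT preincubation, then NADPH regeneration 1 h at 37C; luciferin detection reagent 20 min RT, luminescence in relative luminescence units.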
# [4] = qHTS assay to identify small molecule agonists of the TGF-beta/Smad signaling pathway (AID 1346859; active = well fitted activation curve with a large enough effect in the signal ratio in the repeat runs, not every such curve was filed as active; inconclusive = weak or mixed curves; the % refers to the signal ratio; for activation: % is set by controls: 0 for no effect and ±100 for the full control effect); settings: SBE-bla HEK293T, TGF-beta/Smad beta-lactamase reporter, 5 h; activation: at 76.8 µM (top of the series)
# How it was run: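 Screening used HEK 293T SBE-bla cells at 4,000/well. Test agents: 5 hr, 37 C. Detection: FRET substrate, 2 hr RT, then excitation 405 nm with emissions at 460 and 530 nm.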
# [5] = qHTS assay to identify small molecule antagonists of the TGF-beta/Smad signaling pathway - cell viability counter screen (AID 1346824); note: nearly all actives have a fitted effect of over 50% in size
# How it was run: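 SBE-bla HEK 293T cells, incubated overnight, then compound plus 0.25 ng/mL TGF-beta1 (stock added) for 5 hr at 37 C. Viability was read in the same wells by CellTiter-Glo luminescence after 30 min at room temperature.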
# [6] = qHTS assay to identify small molecule antagonists of the TGF-beta/Smad signaling pathway (AID 1346924; active = well fitted inhibition curve with a large enough effect in the signal ratio in the repeat runs, not every such curve was filed as active; inconclusive = weak or mixed curves; the % refers to the signal ratio); settings: SBE-bla HEK293T, TGF-beta/Smad reporter, beta-lactamase ratio; activity, negative = inhibition: at 76.8 µM (top of the series) unless noted
# How it was run: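 SBE-bla HEK 293T cells were plated overnight, then received compound in DMSO plus TGF-beta1 (added as a 0.25 ng/mL solution) and were incubated 5 h at 37 C. Beta-lactamase reporter activity was read after 2 h at room temperature with LiveBLAzer B/G FRET substrate (ex 405, em 460/530 nm).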
# [7] = Caspase-3/7 induction in HepG2 cells by small molecules, qHTS cell viability counter screen (AID 1346981); note: nearly all actives have a fitted effect of over 30% in size
# How it was run: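 HepG2, WT, 2,000 cells/well; 5 hr pre-incubation 37 C/5% CO2; compound pin-transferred from DMSO; 16 hr exposure; CellTiter-Fluor, 1 hr; fluorescence read.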
# [8] = target: Nuclear receptor subfamily 1 group I member 2 (Homo sapiens) (UniProt O75469); assay: Human pregnane X receptor (PXR) small molecule agonists, qHTS assay (AID 1346982); note: nearly all actives have a fitted effect of over 35% in size; for activation: % is set by controls: 0 for no effect and ±100 for the full control effect
# How it was run: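 Luciferase signal from ONE-Glo (30 min, room temperature) measured activation of hPXR-driven CYP3A4 reporter expression in PXR-Luc HepG2 cells treated with compounds for 24 hr at 37 C.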
# [9] = target: Cytochrome P450 2D6 (Homo sapiens) (UniProt P10635); assay: Cytochrome P450 Family 2 Subfamily D Member 6 (CYP2D6) small molecule antagonists: luciferase reporter qHTS assay (AID 1671196); note: nearly all actives have a fitted effect of over 50% in size
# How it was run: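 Read-out is luminescence from luciferin formed by CYP2D6 turnover of a proluciferin substrate, recorded as relative luminescence units. Reactions ran 1 h at room temperature after NADPH regeneration solution was added.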
# [10] = Human pregnane X receptor (PXR) small molecule agonists, qHTS cell viability counter screen (AID 1346977); note: nearly all actives have a fitted effect of over 50% in size; for activity change, negative = cytotoxicity: % is set by controls: 0 for no effect and ±100 for the full control effect
# How it was run: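 In each well, the PXR reporter HepG2 line was checked for viability: CellTiter-Fluor reagent added 23hr post-dosing, fluorescence read after 1hr incubation at 37C.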
# [11] = Caspase-3/7 induction in CHO-K1 cells by small molecules, qHTS cell viability counter screen (AID 1346979); settings: CellTiter-Fluor fluorescence, 17 h; activity change, negative = cytotoxicity: at 92.4 µM (top of the series); note: nearly all actives have a fitted effect of over 35% in size
# How it was run: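 Following a 5hr settling period, CHO-K1 cells at 1,500 per well received DMSO-dissolved compounds. Cell viability was quantified 16hr later by CellTiter-Fluor fluorescence, measured after 1hr with reagent at 37C.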
# [12] = target: Nuclear receptor subfamily 1 group I member 2 (Rattus norvegicus) (UniProt Q9R1A7); assay: Rat pregnane X receptor (rPXR) activation by small molecules, qHTS assay (AID 1346983); settings: rPXR luciferase reporter cells, One-Glo luminescence, 24 h; max activation: stronger effect = higher value; note: nearly all actives have a fitted effect of over 20% in size
# How it was run: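 Cell-based rPXR activation assay: rPXR cells, 2,000 per well, rested 5hr at 37 C, then exposed to compounds in DMSO for 24 hr at 37 C. Luciferase activity read by One-Glo luminescence after 30 min at room temperature.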
# Potency is the fitted concentration of half-maximal effect; tags give direction and shape of the fitted curve or compound fluorescence and quenching.
# UniProt P11712, sequence (P11712 whole entry, looked up): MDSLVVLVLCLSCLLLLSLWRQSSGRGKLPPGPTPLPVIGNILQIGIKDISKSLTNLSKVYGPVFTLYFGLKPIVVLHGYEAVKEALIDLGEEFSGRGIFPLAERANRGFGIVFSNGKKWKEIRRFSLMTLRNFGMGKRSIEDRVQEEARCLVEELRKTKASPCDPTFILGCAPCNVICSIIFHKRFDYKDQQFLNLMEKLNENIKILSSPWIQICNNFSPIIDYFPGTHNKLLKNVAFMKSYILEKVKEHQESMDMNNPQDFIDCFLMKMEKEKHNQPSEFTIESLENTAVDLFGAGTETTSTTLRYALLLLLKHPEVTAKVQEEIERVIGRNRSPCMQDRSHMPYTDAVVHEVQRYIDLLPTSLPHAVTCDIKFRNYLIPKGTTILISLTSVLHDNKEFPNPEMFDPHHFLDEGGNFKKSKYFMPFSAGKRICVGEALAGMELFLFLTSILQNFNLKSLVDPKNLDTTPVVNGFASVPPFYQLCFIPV
# UniProt P10635, sequence (P10635 whole entry, looked up): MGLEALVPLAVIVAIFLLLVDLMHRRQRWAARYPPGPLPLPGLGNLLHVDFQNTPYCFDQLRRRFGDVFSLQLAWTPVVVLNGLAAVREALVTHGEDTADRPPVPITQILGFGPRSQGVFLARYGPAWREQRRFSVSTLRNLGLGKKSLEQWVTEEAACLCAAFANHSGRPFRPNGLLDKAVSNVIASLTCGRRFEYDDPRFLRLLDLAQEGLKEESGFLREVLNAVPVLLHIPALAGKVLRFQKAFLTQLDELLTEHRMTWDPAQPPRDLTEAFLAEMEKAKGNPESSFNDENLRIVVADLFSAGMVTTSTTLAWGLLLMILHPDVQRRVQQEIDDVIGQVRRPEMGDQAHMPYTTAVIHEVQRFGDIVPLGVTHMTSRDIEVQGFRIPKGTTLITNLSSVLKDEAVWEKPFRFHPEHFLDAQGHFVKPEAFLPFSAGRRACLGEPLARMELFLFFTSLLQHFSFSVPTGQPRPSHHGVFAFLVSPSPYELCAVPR
# UniProt O75469, sequence (O75469 whole entry, looked up): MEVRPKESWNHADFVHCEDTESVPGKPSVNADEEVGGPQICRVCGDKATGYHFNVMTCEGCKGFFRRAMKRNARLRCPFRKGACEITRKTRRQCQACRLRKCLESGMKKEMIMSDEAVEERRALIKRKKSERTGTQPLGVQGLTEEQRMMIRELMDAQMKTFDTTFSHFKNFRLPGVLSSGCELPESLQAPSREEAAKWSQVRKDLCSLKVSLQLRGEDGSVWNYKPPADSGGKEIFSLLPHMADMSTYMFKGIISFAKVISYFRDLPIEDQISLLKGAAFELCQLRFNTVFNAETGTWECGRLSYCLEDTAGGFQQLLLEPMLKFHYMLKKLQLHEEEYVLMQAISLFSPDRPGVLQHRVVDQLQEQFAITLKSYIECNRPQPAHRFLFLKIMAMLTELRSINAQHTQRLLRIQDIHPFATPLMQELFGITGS
# UniProt P33261, sequence (P33261 whole entry, looked up): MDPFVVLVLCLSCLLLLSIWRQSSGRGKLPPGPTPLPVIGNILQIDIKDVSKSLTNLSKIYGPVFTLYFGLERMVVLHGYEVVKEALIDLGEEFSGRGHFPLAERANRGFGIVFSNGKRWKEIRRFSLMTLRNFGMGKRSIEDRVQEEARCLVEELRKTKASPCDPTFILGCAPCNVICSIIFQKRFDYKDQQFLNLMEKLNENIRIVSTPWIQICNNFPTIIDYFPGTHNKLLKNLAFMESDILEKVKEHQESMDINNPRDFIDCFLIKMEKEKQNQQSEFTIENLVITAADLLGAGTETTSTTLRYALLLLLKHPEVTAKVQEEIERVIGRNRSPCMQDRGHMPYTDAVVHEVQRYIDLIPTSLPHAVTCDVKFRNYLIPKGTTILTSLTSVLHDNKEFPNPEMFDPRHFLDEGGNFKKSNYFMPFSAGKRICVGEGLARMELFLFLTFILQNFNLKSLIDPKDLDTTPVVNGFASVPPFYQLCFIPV
# UniProt Q9R1A7, sequence (Q9R1A7 whole entry, looked up): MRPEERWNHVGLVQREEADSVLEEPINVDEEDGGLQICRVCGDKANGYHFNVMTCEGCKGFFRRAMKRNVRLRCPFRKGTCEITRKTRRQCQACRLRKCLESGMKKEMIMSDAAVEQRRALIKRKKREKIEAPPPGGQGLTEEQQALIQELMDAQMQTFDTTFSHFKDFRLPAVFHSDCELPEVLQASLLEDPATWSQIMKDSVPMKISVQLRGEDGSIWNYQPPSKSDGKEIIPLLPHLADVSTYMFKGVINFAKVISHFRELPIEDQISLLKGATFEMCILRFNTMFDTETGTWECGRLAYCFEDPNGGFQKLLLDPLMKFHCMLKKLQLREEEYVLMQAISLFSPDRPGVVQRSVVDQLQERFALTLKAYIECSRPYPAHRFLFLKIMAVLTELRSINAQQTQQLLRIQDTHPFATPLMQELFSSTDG
compound,measurement,setting,value
C=COCC1CCC(CO)CC1 (configuration not stated),Potency,[1],inactive
same,Potency,[2],inactive
same,Potency,[3],"inconclusive: 79.6 µM [inhibitor, single point]"
CCOCCOC(=O)/C=C/c1ccc(OC)cc1,Potency,[1],"inconclusive: 33.5 µM [rising, single point]"
same,Potency,[2],active: 34.7 µM
CC(C)CCCC(C)(C)O,Potency,[4],inactive
OC[C@@H](O)[C@@H](O[C@@H]1O[C@H](CO)[C@H](O)[C@H](O)[C@H]1O)[C@H](O)[C@@H](O)CO,Potency,[1],inactive
same,Potency,[3],"inconclusive: 22.2 µM [inhibitor, full curve, poor fit] and inactive"
CC(C)CC(C)CC(O)CC(C)C (configuration not stated),Potency,[5],"inconclusive: 4.36 µM [cytotoxic, single point]"
same,"activity, negative = inhibition",[6],inconclusive: 4.57%
same,Potency,[7],"inconclusive: 1.37 µM [cytotoxic, single point]"
same,Potency,[8],inactive
CCOC(=O)c1ccc(NC(=O)CN2CCCCC2)cc1,Potency,[1],"inconclusive: 11.9 µM [cytotoxic, partial curve]"
same,Potency,[3],"inconclusive: 30.9 µM [inhibitor, partial curve]"
CC(CO)(CO)[N+](=O)[O-],Potency,[1],inactive
same,Potency,[9],inactive
same,Potency,[3],inactive
Nc1nc(N)nc(-c2cc(Cl)ccc2Cl)n1,Potency,[1],inactive
same,Potency,[3],inactive
CC(C)OC(=O)C(O)(CC(=O)O)CC(=O)O,Potency,[5],inactive
same,Potency,[10],inactive
same,Potency,[3],active: 35.6 µM
CCc1cccc2c3c([nH]c12)C(CC)(CC(=O)O)OCC3 (configuration not stated),Potency,[5],inactive
same,Potency,[4],inactive
Oc1cccc2[nH]ccc12,Potency,[1],inactive
same,Potency,[2],inactive
same,Potency,[3],active: 15.5 µM
OCCN1CCN(CCO)CC1,Potency,[5],"inconclusive: 10.1 µM [rising, full curve]"
same,"activity, negative = inhibition",[6],inconclusive: 4.61%
same,Potency,[7],inactive
CCOC(=O)COc1cc(-n2ncc(C(F)(F)F)c(C)c2=O)c(F)cc1Cl,Potency,[4],"inconclusive: 24.5 µM [rising, partial curve]"
same,Potency,[6],"inconclusive: 30.9 µM [rising, partial curve]"
same,Potency,[8],"inconclusive: 77 µM [activator, single point]"
O=C1CCCCC1,Potency,[4],inactive
same,Potency,[11],inactive
same,Potency,[3],"inconclusive: 52.8 µM [inhibitor, partial curve]"
CC1(C)O[C@@H]2C[C@H]3[C@@H]4C[C@H](F)C5=CC(=O)C=C[C@]5(C)[C@H]4[C@@H](O)C[C@]3(C)[C@]2(C(=O)CO)O1,Potency,[4],"inconclusive: 23.9 µM [rising, partial curve, poor fit]"
same,"activity, negative = inhibition",[6],inconclusive: 0.188% [at 35.3 µM]
same,Potency,[8],"inconclusive: 3.76 µM [activator, partial curve, poor fit]"
same,Potency,[12],active: 8.91 µM
same,Potency,[9],"inconclusive: 34.7 µM [inhibitor, single point]"
same,Potency,[2],"inconclusive: 43.6 µM [inhibitor, partial curve, poor fit]"
Cc1c[nH]c2ccccc12,"activity, negative = inhibition",[6],inconclusive: -3.07% [at 35.3 µM]
same,Potency,[10],inactive
CC(CO)(CO)CO,"activity, negative = inhibition",[6],inconclusive: 14.7%
CCCCC1(COC(=O)CCC(=O)O)C(=O)N(c2ccccc2)N(c2ccccc2)C1=O,Potency,[4],"inconclusive: 38.7 µM [rising, partial curve, poor fit]"
same,Potency,[11],"inconclusive: 2.42 µM [cytotoxic, single point]"
CC(=O)OCCC1CCCCC1,"activity, negative = inhibition",[6],inconclusive: 5.35%
O=C(O)c1ccccc1C(=O)O,Potency,[4],inactive
same,Potency,[9],"inconclusive: 65.3 µM [inhibitor, partial curve]"
same,Potency,[2],active: 41.2 µM and active: 82.1 µM
CCC(C)[O-].CCC(C)[O-].CCOC(=O)/C=C(/C)[O-].[Al+3],Potency,[4],inactive
same,Potency,[7],"inconclusive: 30.6 µM [rising, partial curve]"
CCCCN(CCCC)C(=S)SSC(=S)N(CCCC)CCCC,"activity, negative = inhibition",[6],inconclusive: -0.0121%
C[C@]12CC[C@@H]3c4ccc(O)cc4CC[C@H]3[C@@H]1CC[C@H]2O,"activity, negative = inhibition",[6],inconclusive: 4.17% and inconclusive: 15.5%
same,Potency,[10],"inconclusive: 77 µM [cytotoxic, partial curve, poor fit]"
O=C(O)CCCc1c[nH]c2ccccc12,Potency,[4],"inconclusive: 27.5 µM [rising, partial curve]"
same,Potency,[11],"inconclusive: 19.3 µM [rising, full curve]"
same,Potency,[9],inactive
Cc1ccc([N+](=O)[O-])cc1S(=O)(=O)O,Potency,[4],inactive
same,Potency,[9],"inconclusive: 63.3 µM [inhibitor, partial curve]"
same,Potency,[2],"inconclusive: 87.8 µM [inhibitor, single point]"
same,Potency,[3],inconclusive: 78.3 µM [inhibitor]
OC(Cn1cncn1)(Cn1cncn1)c1ccc(F)cc1F,Potency,[4],inactive
same,Potency,[9],"active: 22.7 µM and inconclusive: 56.4 µM [inhibitor, partial curve, poor fit]"
CCOC(=O)C(C)C(C)=O (configuration not stated),Potency,[4],inactive
same,Potency,[3],inactive
